Source: patent US11673947B2, “Target tissue-specific antigen-binding molecule” (Chugai Seiyaku Kabushiki Kaisha, priority 2012, dated 2023)

Tests used:
[1] = molecular target: T1, HSA (Homo sapiens, UniProt P02768); assay: Phage ELISA, binding to HSA in the presence or absence of SC; details: in the presence of SC
Procedure: Culture supernatants containing phages were collected according to a conventional method (Methods Mol. Biol. (2002) 178, 133-145) from single colonies of E. coli obtained by the method described above. The collected culture supernatants were treated by ultrafiltration using NucleoFast 96 ([…]-NAGEL). 100 μl of the culture supernatants were added to each well, and the NucleoFast 96 was centrifuged (4500 g for 45 minutes) to remove flow-through. One hundred μl of H2O was added to each well, and again the NucleoFast 96 was centrifuged (4500 g for 30 minutes) for washing. After 100 μl of TBS was added, the NucleoFast 96 was allowed to stand for five minutes at room temperature. Finally, phage solution contained in the supernatant of each well was collected.
The purified phages, to which TBS or SC/TBS was added, were subjected to ELISA by the following procedure. A StreptaWell 96 microtiter plate (Roche) was coated overnight with 100 μl of TBS containing biotin-labeled HSA. After biotin-labeled HSA was removed by washing each well of the plate with TBST, the wells were blocked with 250 μl of 2% skim milk/TBS for one hour or more. 2% skim milk/TBS was removed, and then the prepared, purified phages were added to each well. […] Then, the developed color was assessed by measuring absorbance at 450 nm.

[2] = molecular target: T1, HSA; assay: IgG ELISA, binding to HSA in the presence or absence of each small molecule
Procedure: Two types of antibodies obtained: HSNMSC1-4_#22 and GC413, were subjected to ELISA under the nine conditions described in Table 3. Meanwhile, each small molecule was appropriately prepared at the concentrations shown in Table 3 using the buffers indicated in Table 19. Biotin-labeled HSA was used as the antigen.
First, a StreptaWell 96 microtiter plate (Roche) was coated at room temperature for one hour or more with 100 μl of PBS containing biotin-labeled HSA. After washing with Wash buffer to remove unbound biotin-labeled HSA from the plate, each well was blocked for one hour or more with 250 μl of Blocking Buffer. After Blocking Buffer was removed from each well, the purified IgGs were prepared to 2.5 μg/ml in Sample Buffer containing small molecules at the final concentrations shown in Table 3, and each was aliquoted at 100 μl into the plate. The plate was allowed to stand at room temperature for one hour to allow binding of each IgG to biotin-labeled HSA in each well. After washing with Wash Buffer containing small molecules at the final concentrations shown in Table 3, an HRP-conjugated anti-human IgG antibody (BIOSOURCE) diluted with Sample Buffer containing the same small molecules was added to each well. The plate was incubated for one hour. Following wash with Wash Buffer containing each small molecule, the TMB single solution (ZYMED) was added to each well. The chromogenic reaction in the solution of each well was terminated by adding sulfuric acid. Then, the developed color was assessed by measuring absorbance at 450 nm.

binding activity to HSA in the presence of the small molecule cocktail (phage ELISA) [1]: has binding activity
absorbance under condition 2 compared to condition 8 ([2]; condition 2 (1 mM adenosine)): the same
absorbance under condition 9 as compared to condition 8 ([2]; condition 9 (without small molecules) vs condition 8 (complete small molecule cocktail solution)): markedly lower
absorbance under other conditions ([2]; remaining conditions of Table 3): markedly lower
B1: HSNMSC1-4_#22: antibody that binds to HSA in the presence of adenosine; SEQ ID NOs: 54 and 55 (antibody, listed as Homo sapiens)
heavy: EVQLVESGGGVVQPGRSLRLSCAAYGFTFSRYGMQWVRQAPGKGLEWVAVIWNDASNQYYADSVKGRFTISRDNSRNTLYLQMDSLRSEDTGLYYCAKEGSSPKTPTSTWSSLESWGQGTLVTVSS[human IgG1 constant region not written out]
light: QSALTQPASVSGSPGQSITISCTGTSSDVGGYNYVSWYQQHPGKAPKLMIHDVSNRPSGVSNRFSGSKSGTTASLTISGLQAEDEADYYCSSYTSSTTPYVFGTGTKVTVLGQPKAAPSVTLFPPSSEELQANKATLVCLISDFYPGAVTVAWKADSSPVKAGVETTTPSKQSNNKYAASSYLSLTPEQWKSHRSYSCQVTHEGSTVEKTVAPTECS
